Source: the supplement of paper PMC8728848
The other results are listed elsewhere or left out.

Assays:
Experiment in all cases: glycan array binding signal (z-score within array); higher = stronger binding
Conditions in all cases: glycan notation: IUPAC condensed, linker removed
[1] = target: Gal(b1-4)GlcNAc(b1-3)Gal(b1-4)GlcNAc(b1-2)[Gal(b1-4)GlcNAc(b1-3)Gal(b1-4)GlcNAc(b1-6)]Man(a1-6)[Gal(b1-4)GlcNAc(b1-3)Gal(b1-4)GlcNAc(b1-2)Man(a1-3)]Man(b1-4)GlcNAc(b1-4)GlcNAc
How it was run: (§1)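 Arrays were curated from the Consortium for Functional Glycomics database, 3228 in total, and kept only where the protein sequence was available. Binding is expressed as a within-array Z-score. This score was averaged across arrays of the same protein sequence at different concentrations or buffers and across linkers, and negative values can be read as non-binding.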

[2] = target: Gal(b1-4)GlcNAc(b1-3)Gal(b1-4)GlcNAc(b1-2)[Gal(b1-4)GlcNAc(b1-3)Gal(b1-4)GlcNAc(b1-6)]Man(a1-6)[Gal(b1-4)GlcNAc(b1-3)Gal(b1-4)GlcNAc(b1-2)Man(a1-3)]Man(b1-4)GlcNAc(b1-4)[Fuc(a1-6)]GlcNAc
How it was run: as §1

[3] = target: Gal(b1-4)GlcNAc(b1-3)Gal(b1-4)GlcNAc(b1-3)Gal(b1-4)GlcNAc
How it was run: as §1

[4] = target: Gal(b1-4)GlcNAc(b1-3)Gal(b1-4)GlcNAc(b1-3)Gal(b1-4)GlcNAc(b1-2)Man(a1-3)[Gal(b1-4)GlcNAc(b1-3)Gal(b1-4)GlcNAc(b1-3)Gal(b1-4)GlcNAc(b1-2)Man(a1-6)]Man(b1-4)GlcNAc(b1-4)GlcNAc
How it was run: as §1

[5] = target: Gal(b1-4)GlcNAc(b1-3)Gal(b1-4)GlcNAc(b1-3)Gal(b1-4)GlcNAc(b1-2)Man(a1-3)[Gal(b1-4)GlcNAc(b1-3)Gal(b1-4)GlcNAc(b1-3)Gal(b1-4)GlcNAc(b1-2)Man(a1-6)]Man(b1-4)GlcNAc(b1-4)[Fuc(a1-6)]GlcNAc
How it was run: as §1

[6] = target: Gal(b1-4)GlcNAc(b1-3)Gal(b1-4)GlcNAc(b1-3)Gal(b1-4)GlcNAc(b1-2)[Gal(b1-4)GlcNAc(b1-3)Gal(b1-4)GlcNAc(b1-3)Gal(b1-4)GlcNAc(b1-6)]Man(a1-6)[Gal(b1-4)GlcNAc(b1-3)Gal(b1-4)GlcNAc(b1-3)Gal(b1-4)GlcNAc(b1-2)Man(a1-3)]Man(b1-4)GlcNAc(b1-4)[Fuc(a1-6)]GlcNAc
How it was run: as §1

[7] = target: Gal(b1-4)GlcNAc(b1-3)Gal(b1-4)GlcNAc(b1-3)Gal(b1-4)GlcNAc(b1-3)Gal(b1-4)GlcNAc(b1-2)Man(a1-3)[Gal(b1-4)GlcNAc(b1-3)Gal(b1-4)GlcNAc(b1-3)Gal(b1-4)GlcNAc(b1-3)Gal(b1-4)GlcNAc(b1-2)Man(a1-6)]Man(b1-4)GlcNAc(b1-4)GlcNAc
How it was run: as §1

[8] = target: Gal(b1-4)GlcNAc(b1-3)Gal(b1-4)GlcNAc(b1-3)Gal(b1-4)GlcNAc(b1-3)Gal(b1-4)GlcNAc(b1-2)Man(a1-3)[Gal(b1-4)GlcNAc(b1-3)Gal(b1-4)GlcNAc(b1-3)Gal(b1-4)GlcNAc(b1-3)Gal(b1-4)GlcNAc(b1-2)Man(a1-6)]Man(b1-4)GlcNAc(b1-4)[Fuc(a1-6)]GlcNAc
How it was run: as §1

[9] = target: Gal(b1-4)GlcNAc(b1-3)Gal(b1-4)GlcNAc(b1-3)Gal(b1-4)GlcNAc(b1-3)Gal(b1-4)GlcNAc(b1-2)[Gal(b1-4)GlcNAc(b1-3)Gal(b1-4)GlcNAc(b1-3)Gal(b1-4)GlcNAc(b1-3)Gal(b1-4)GlcNAc(b1-6)]Man(a1-6)[Gal(b1-4)GlcNAc(b1-3)Gal(b1-4)GlcNAc(b1-3)Gal(b1-4)GlcNAc(b1-3)Gal(b1-4)GlcNAc(b1-2)Man(a1-3)]Man(b1-4)GlcNAc(b1-4)[Fuc(a1-6)]GlcNAc
How it was run: as §1

[10] = target: Gal(b1-4)GlcNAc(b1-3)Gal(b1-4)GlcNAc(b1-3)Gal(b1-4)GlcNAc(b1-3)Gal(b1-4)GlcNAc(b1-3)Gal(b1-4)GlcNAc(b1-2)Man(a1-3)[Gal(b1-4)GlcNAc(b1-3)Gal(b1-4)GlcNAc(b1-3)Gal(b1-4)GlcNAc(b1-3)Gal(b1-4)GlcNAc(b1-3)Gal(b1-4)GlcNAc(b1-2)Man(a1-6)]Man(b1-4)GlcNAc(b1-4)GlcNAc
How it was run: as §1

[11] = target: Gal(b1-4)GlcNAc(b1-3)Gal(b1-4)GlcNAc(b1-3)Gal(b1-4)GlcNAc(b1-3)Gal(b1-4)GlcNAc(b1-3)Gal(b1-4)GlcNAc(b1-2)Man(a1-3)[Gal(b1-4)GlcNAc(b1-3)Gal(b1-4)GlcNAc(b1-3)Gal(b1-4)GlcNAc(b1-3)Gal(b1-4)GlcNAc(b1-3)Gal(b1-4)GlcNAc(b1-2)Man(a1-6)]Man(b1-4)GlcNAc(b1-4)[Fuc(a1-6)]GlcNAc
How it was run: as §1

[12] = target: Gal(b1-4)GlcNAc(b1-3)Gal(b1-4)GlcNAc(b1-3)Gal(b1-4)GlcNAc(b1-3)Gal(b1-4)GlcNAc(b1-3)Gal(b1-4)GlcNAc(b1-2)[Gal(b1-4)GlcNAc(b1-3)Gal(b1-4)GlcNAc(b1-3)Gal(b1-4)GlcNAc(b1-3)Gal(b1-4)GlcNAc(b1-3)Gal(b1-4)GlcNAc(b1-6)]Man(a1-6)[Gal(b1-4)GlcNAc(b1-3)Gal(b1-4)GlcNAc(b1-3)Gal(b1-4)GlcNAc(b1-3)Gal(b1-4)GlcNAc(b1-3)Gal(b1-4)GlcNAc(b1-2)Man(a1-3)]Man(b1-4)GlcNAc(b1-4)[Fuc(a1-6)]GlcNAc
How it was run: as §1

[13] = target: Gal(b1-4)GlcNAc(b1-3)Gal(b1-4)GlcNAc(b1-3)Gal(b1-4)GlcNAc(b1-3)Gal(b1-4)GlcNAc(b1-3)Gal(b1-4)GlcNAc(b1-3)Gal(b1-4)GlcNAc(b1-2)Man(a1-3)[Gal(b1-4)GlcNAc(b1-3)Gal(b1-4)GlcNAc(b1-3)Gal(b1-4)GlcNAc(b1-3)Gal(b1-4)GlcNAc(b1-3)Gal(b1-4)GlcNAc(b1-3)Gal(b1-4)GlcNAc(b1-2)Man(a1-6)]Man(b1-4)GlcNAc(b1-4)GlcNAc
How it was run: as §1

[14] = target: Gal(b1-4)GlcNAc(b1-3)Gal(b1-4)GlcNAc(b1-3)GalNAc
How it was run: as §1

[15] = target: Gal(b1-4)GlcNAc(b1-3)Gal(b1-4)GlcNAc(b1-3)[Gal(b1-4)GlcNAc(b1-3)Gal(b1-4)GlcNAc(b1-6)]GalNAc
How it was run: as §1

[16] = target: Gal(b1-4)GlcNAc(b1-3)Gal(b1-4)GlcNAc(b1-6)[Gal(b1-3)]GalNAc
How it was run: as §1

[17] = target: Gal(b1-4)GlcNAc(b1-3)Gal(b1-4)[Fuc(a1-3)]GlcNAc(b1-3)Gal(b1-4)[Fuc(a1-3)]GlcNAc
How it was run: as §1

[18] = target: Gal(b1-4)GlcNAc(b1-3)GalNAc
How it was run: as §1

[19] = target: Gal(b1-4)GlcNAc(b1-3)[Fuc(a1-3)GlcNAc(b1-6)]Gal(b1-4)Glc
How it was run: as §1

[20] = target: Gal(b1-4)GlcNAc(b1-3)[Gal(b1-4)GlcNAc(b1-6)]Gal(b1-4)GlcNAc
How it was run: as §1

[21] = target: Gal(b1-4)GlcNAc(b1-3)[GlcNAc(b1-6)]Gal(b1-4)GlcNAc
How it was run: as §1

[22] = target: Gal(b1-4)GlcNAc(b1-6)Gal(b1-4)GlcNAc
How it was run: as §1

[23] = target: Gal(b1-4)GlcNAc(b1-6)GalNAc
How it was run: as §1

[24] = target: Gal(b1-4)GlcNAc(b1-6)[Gal(b1-3)]GalNAc
How it was run: as §1

[25] = target: Gal(b1-4)GlcNAc(b1-6)[Gal(b1-4)GlcNAc(b1-3)]GalNAc
How it was run: as §1

Gal(b1-4)GlcNAc6P = target: Gal(b1-4)GlcNAc6P
How it was run: as §1

Gal(b1-6)Gal = target: Gal(b1-6)Gal
How it was run: as §1

Gal3S(b1-3)GalNAc = target: Gal3S(b1-3)GalNAc
How it was run: as §1

Gal3S(b1-3)GlcNAc = target: Gal3S(b1-3)GlcNAc
How it was run: as §1

[26] = target: Gal3S(b1-3)[Fuc(a1-4)]GlcNAc
How it was run: as §1

Gal3S(b1-4)Glc = target: Gal3S(b1-4)Glc
How it was run: as §1

Gal3S(b1-4)Glc6S = target: Gal3S(b1-4)Glc6S
How it was run: as §1

Gal3S(b1-4)GlcNAc = target: Gal3S(b1-4)GlcNAc
How it was run: as §1

[27] = target: Gal3S(b1-4)[Fuc(a1-3)]Glc6S
How it was run: as §1

[28] = target: Gal3S(b1-4)[Fuc(a1-3)]GlcNAc
How it was run: as §1

[29] = target: Gal3S(b1-4)[Fuc(a1-3)]GlcNAc6S
How it was run: as §1

Gal3S4S(b1-4)GlcNAc = target: Gal3S4S(b1-4)GlcNAc
How it was run: as §1

Gal3S6S(b1-4)GlcNAc = target: Gal3S6S(b1-4)GlcNAc
How it was run: as §1

Gal3S6S(b1-4)GlcNAc6S = target: Gal3S6S(b1-4)GlcNAc6S
How it was run: as §1

Gal4S(b1-4)GlcNAc = target: Gal4S(b1-4)GlcNAc
How it was run: as §1

Gal4S6S(b1-4)GlcNAc = target: Gal4S6S(b1-4)GlcNAc
How it was run: as §1

Gal6P(b1-4)GlcNAc = target: Gal6P(b1-4)GlcNAc
How it was run: as §1

Gal6S(b1-3)GlcNAc = target: Gal6S(b1-3)GlcNAc
How it was run: as §1

Gal6S(b1-3)GlcNAc6S = target: Gal6S(b1-3)GlcNAc6S
How it was run: as §1

Gal6S(b1-4)Glc = target: Gal6S(b1-4)Glc
How it was run: as §1

B1: LecB PA14 (Pseudomonas aeruginosa) (protein)
chain: MATQGVFTLPANTQFGVTAFANSAGTQTVNVQVNNETVATFTGQSTNNAIIGSKVLNSGGGGKVQILVSVNGRSSDLVSAQVILANELNFALVGSEDSTDNDYNDAVVVINWPLG
glycan array binding signal (z-score) [1]: -0.236 | glycan array binding signal (z-score) [2]: 0.576 | glycan array binding signal (z-score) [3]: -0.48 | glycan array binding signal (z-score) [4]: -0.378 | glycan array binding signal (z-score) [5]: 1.02 | glycan array binding signal (z-score) [6]: 0.253 | glycan array binding signal (z-score) [7]: -0.03 | glycan array binding signal (z-score) [8]: 0.621 | glycan array binding signal (z-score) [9]: 0.632 | glycan array binding signal (z-score) [10]: 0.285 | glycan array binding signal (z-score) [11]: 0.294 | glycan array binding signal (z-score) [12]: -0.587 | glycan array binding signal (z-score) [13]: -0.092 | glycan array binding signal (z-score) [14]: 0.121 | glycan array binding signal (z-score) [15]: -0.666 | glycan array binding signal (z-score) [16]: -0.175 | glycan array binding signal (z-score) [17]: 0.462 | glycan array binding signal (z-score) [18]: -0.33 | glycan array binding signal (z-score) [19]: 0.632 | glycan array binding signal (z-score) [20]: 0.444 | glycan array binding signal (z-score) [21]: -0.32 | glycan array binding signal (z-score) [22]: 0.059 | glycan array binding signal (z-score) [23]: -0.665 | glycan array binding signal (z-score) [24]: -0.065 | glycan array binding signal (z-score) [25]: -0.32 | glycan array binding signal (z-score) (Gal(b1-4)GlcNAc6P): -0.014 | glycan array binding signal (z-score) (Gal(b1-6)Gal): -0.776 | glycan array binding signal (z-score) (Gal3S(b1-3)GalNAc): 0.962 | glycan array binding signal (z-score) (Gal3S(b1-3)GlcNAc): -0.675 | glycan array binding signal (z-score) [26]: 2.03 | glycan array binding signal (z-score) (Gal3S(b1-4)Glc): -0.45 | glycan array binding signal (z-score) (Gal3S(b1-4)Glc6S): -0.564 | glycan array binding signal (z-score) (Gal3S(b1-4)GlcNAc): -0.68 | glycan array binding signal (z-score) [27]: 0.186 | glycan array binding signal (z-score) [28]: 0.8 | glycan array binding signal (z-score) [29]: 0.33 | glycan array binding signal (z-score) (Gal3S4S(b1-4)GlcNAc): -0.603 | glycan array binding signal (z-score) (Gal3S6S(b1-4)GlcNAc): -0.745 | glycan array binding signal (z-score) (Gal3S6S(b1-4)GlcNAc6S): -0.65 | glycan array binding signal (z-score) (Gal4S(b1-4)GlcNAc): -0.214 | glycan array binding signal (z-score) (Gal4S6S(b1-4)GlcNAc): -0.457 | glycan array binding signal (z-score) (Gal6P(b1-4)GlcNAc): -0.707 | glycan array binding signal (z-score) (Gal6S(b1-3)GlcNAc): -0.543 | glycan array binding signal (z-score) (Gal6S(b1-3)GlcNAc6S): -0.296 | glycan array binding signal (z-score) (Gal6S(b1-4)Glc): -0.626
